Laboratory results from publication PMC8905533.

Substrate: O=C(O)C(=O)O
Assay: purified protein
Details: 5 mM ATP, 2 mM CoA, 5 mM MgCl2, HEPES pH 8, room temperature

B1: LsOCS (oxalyl-CoA synthetase) (Lathyrus sativus) (protein)
chain: ETATTLTGLLQSVAKTFPSRRGISLAGKFDLTHSHLNELVESAADHLISAGIKPNDVVALTFPNTVEYVILFLAVIRVRATAAPLNAAYTAEEFEFYLSDSESKLLLTPLEGNKPAQDAASKLSIPLGSASLTKSEEETKLTISLKHPESGLKSDSVNSVAKLINEPSDVALFLHTSGTTSRPKGVPLTQHNLVSSVKNIQSVYQLTESDSTVIVLPLFHVHGLIAGLLSSLGSGAAVVLPAAGRFSASTFWKDMIQYNATWYTAVPTIHQIILDRHLNNPEPAYPKLRFIRSCSASLAPVILGRLEESFGAPVLEAYAMTEASHLMSSNPLPQNGPHKAGSVGKPVGQEMAILDESGRVLEAGVNGEVCIRGENVTKGYKNNEAANTAAFLFGWFHTGDIGYFDSDGYLHLVGRIKELINRGGEKISPIEVDAVLLSHPDVAQAVAFGIPDQKYGEEIHCAIIPREGSNIDAEEVLTFCKKNLASFKVPKKVFITDSLPKTATGKILRRLVAEHFVSKV
  Km: 71.5 ± 13.3 µM
